Screen size: about 150,000 compounds; about 540 (0.36%) showed an effect of 50% or more. This is one part of the list.

The subject of this experiment is Plasmodium falciparum. Briefly: Primary screen in NF54 nanoGlo assay, in single point, at 2uM, 72h; a lower Z score goes with more inhibition. It counts as functional, Erythrocyte. To be noted: timepoint 72 hour.
The term % Inhibition denotes the change of the read-out against control, counted positive when it falls. Regarding `Cc1c(C(=O)NC2CCCCC2C(F)(F)F)nnn1C1CCNCC1` (stereo not given), the “% Inhibition” value was -13% and the Z score turned out to be 2.21.
In the same order, the values of `Cc1cccc(N2CCN(C(=O)CCn3cncn3)CC2)c1C` are -4% and 0.56.
For `O=C(NCc1ccc(F)cc1)c1cn2c(n1)CC[C@H](c1ccccc1)C2`, in that order: -4% and 0.53.
In the same order, the values of `COc1ccc(-c2cnc(C(=O)NCCc3c[nH]c4ccccc34)o2)cc1` are -7% and 0.97.
On to `O=C(c1ccc2scnc2c1)N1CCC2(CCC(O)CC2)CC1`, for which the “% Inhibition” value is 2% and the Z score was -0.28.
For `COC[C@H](C)NC(=O)COc1ccc(Cl)cc1Br`, in that order: -1% and 0.21.
In the same order, the values of `CCCCc1ccc(NCc2c[nH]c3ccccc23)cc1` are 1% and -0.17.
In the same order, the values of `O=C(NC(c1ccccc1)c1ccccc1)N1CCC(N2C(=O)COC2=O)CC1` are -15% and 2.82.
Take `CC(C)CO[C@@H](C)C(=O)Nc1ccc(F)cc1`: the “% Inhibition” value is -4% and the Z score came to 0.81.
`Cc1ccc(F)c(C(=O)NC[C@H]2CC(C(N)=O)=NO2)c1`: the “% Inhibition” value is on record as -3% and the Z score was 0.52.
For `Cn1cc(S(=O)(=O)NC[C@H](O)c2cccs2)cn1`, the “% Inhibition” value was -8% and the Z score is reported as 1.31.
For `CN1C(=O)C[C@H](NS(=O)(=O)Cc2cc(Cl)ccc2F)C1=O`, in that order: 7% and -0.58.
In the same order, the values of `CCCCc1ccc(N(C)C(=O)c2cnc(C(=O)O)cn2)cc1` are -11% and 2.04.
As for `COCCN1CCN(C(=O)Cc2ccc(C)nc2)CC1=O`, the “% Inhibition” value was -12% and the Z score came to 1.98.
In the case of `CCCN(C(=O)c1ccc(C)cc1)c1nc(-c2ccc(C3CCCCC3)cc2)cs1`, the “% Inhibition” value is -4% and the Z score came to 0.58.
For `Cc1cccc(OCC(=O)c2ccc3c(c2)N([C@@H](C)C(=O)N2CCCC2)C(=O)CO3)c1C`, in that order: -16% and 1.42.
For `COc1ccc(S(=O)(=O)N2C[C@H](C)N(C(=O)N3CCOCC3)C2)cc1`, in that order: 26% and -2.98.
In the same order, the values of `COCCN1CC[C@H](N2CCCN(C(=O)c3ccc(C(C)C)cc3)CC2)C1=O` are -11% and 1.42.
For the compound `CC(C)n1cc(NC(=O)N2CCCC(C)(C)CC2)cn1`, the “% Inhibition” value is recorded as -10% and the Z score was 1.29.
In the same order, the values of `Nc1nnc(CCCC2CCCCC2)s1` are -36% and 4.26.
With `Cc1cc(NC(=O)C(C)N2CCOC(c3nc(C)cs3)C2)on1` (stereo not given), the “% Inhibition” value is -15% and the Z score is given as 1.29.
For `CC(C)Cn1ncc(NC(=O)N2CC(C)(C#N)C2)c1C1CC1`, in that order: 13% and -1.85.
For `N#Cc1ccc(CC(=O)NC2CC(C3CCCCC3)C2)cn1` (stereo not given), in that order: 6% and -0.86.
For `O=C(NCCOCCn1ccnc1)OCc1ccccn1`, in that order: -4% and 0.46.
Regarding `Cc1nccc(N2CC[C@](C)(O)[C@H](Cc3ccccc3)C2)n1`, the “% Inhibition” value came to 17% and the Z score was -2.2.
In the same order, the values of `O=C(c1cccs1)N1CC[C@H](c2nnc(Cc3ccccc3)o2)C1` are -5% and 0.6.
In the same order, the values of `O=C(N[C@@H]1CCOc2c(F)cccc21)c1cnc2n1CCCCC2` are -2% and 0.32.
Consider `Nc1nc(N2CCC[C@H](CCC(=O)O)C2)cc(-n2cccn2)n1`, for which the “% Inhibition” value came out at 16% and the Z score is reported as -2.1.
For `CC(C(=O)NCC1CCCO1)N1CCCC1Cn1cccn1` (stereo not given), in that order: -7% and 0.55.
Consider `COCc1nc(C2(CC3CC3)CCN(S(=O)(=O)C(C)C)CC2)no1`, for which the “% Inhibition” value is given as -15% and the Z score is given as 1.95.
Take `O=C(NCCOc1cccc(F)c1)c1cccnc1NC1CCCC1`: the “% Inhibition” value turned out to be 36% and the Z score is on record as -5.25.
For `COc1cc(-c2cnnc(NC[C@H](C)Oc3cccnc3)n2)cc(OC)c1OC`, in that order: -13% and 2.61.
In the same order, the values of `Cc1ccc(C(=O)N/C(=N/c2cccc(C)c2)N2CCN(Cc3cccc(F)c3)CC2)cc1` are -2% and 0.45.
In the same order, the values of `Cc1cccc(Oc2cc(N)cc(Oc3cccc(C)c3)c2)c1` are 33% and -0.75.
As for `COCCCN1C(=O)C2(CCN(Cc3ccoc3)CC2)Nc2ccccc21`, the “% Inhibition” value was -6% and the Z score amounted to 0.86.
For `O=c1cc2c(nn1CN1CCC(Cc3ccccc3)CC1)CCC2`, the “% Inhibition” value was 1% and the Z score was -0.09.
As for `Cn1cc(-c2ccccc2)cc1C(N)=O`, the “% Inhibition” value is -10% and the Z score worked out at 1.12.
With `COCCNS(=O)(=O)c1cc(C)c(Br)cc1C(C)C`, the “% Inhibition” value was -7% and the Z score was determined as 0.67.
Consider `O=C(CCC(F)(F)F)N1CCC[C@H](c2ncncc2-c2ccccc2Cl)C1`, for which the “% Inhibition” value amounted to 2% and the Z score was -0.29.
In the same order, the values of `C[C@@H](CNC(=O)N(C)CC1(O)CCOCC1)c1cccs1` are -1% and 0.07.
For `COc1cccc2c1CCc1c(C(=O)N[C@H]3CCS(=O)(=O)C3)n[nH]c1-2`, in that order: -5% and 0.66.
For `O=C(O)Cn1nc(COc2cccc(Cl)c2)nc1C1CCC1`, in that order: -1% and 0.13.
For the compound `CC(C1Cc2ccccc2O1)N(C)C(=O)c1ncoc1C1CC1` (stereo not given), the “% Inhibition” value stood at 2% and the Z score is -0.22.
For `Cc1ccc2[nH]cc(-c3cncc(C(=O)O)c3)c2c1`, in that order: -8% and 1.1.
For the compound `O=C(Cn1ncc(-c2ccccc2)nc1=O)N1CCc2ccccc21`, the “% Inhibition” value came to 15% and the Z score is on record as -1.87.
For `CCCOc1cccc(-c2nc(=O)c(CCC(=O)N3CCCC3)n[nH]2)c1`, in that order: -7% and 1.05.
Turning to `COc1cccnc1NC(=O)NC1CC(OC)(OC)C1`, the “% Inhibition” value is recorded as -8% and the Z score worked out at 1.58.
In the same order, the values of `CC(C)CC[C@@]1(C2CCN(C(=O)c3sccc3Cl)CC2)NC(=O)N(Cc2ccccn2)C1=O` are -3% and 0.63.
As to `Cn1c(=O)sc2cc(NC(=O)c3ccc(Br)cc3)ccc21`, the “% Inhibition” value is recorded as 4% and the Z score is -0.48.
For `Nc1nc(N[C@H]2C[C@@H]2c2ccccc2)c2cc(C(=O)O)ccc2n1`, in that order: -3% and 0.54.
For `COCC1(C(=O)Nc2cnc(C(C)C)nc2)CCC1`, the “% Inhibition” value was -10% and the Z score is 1.55.
In the same order, the values of `Cc1ccc(-c2nc(CN(C)Cc3nnc(C)o3)c(C)o2)o1` are -9% and 1.7.
For `CS(=O)(=O)N1CCN(C(=O)COC(=O)c2ccc(-c3ccccc3)cc2)CC1`, in that order: -4% and 0.75.
In the same order, the values of `CCc1cc(C(=O)N(Cc2ccc(C)s2)C(C)C)n(C)n1` are -6% and 0.7.
As to `O=C(NC1CC1)c1cccc(-n2ccc3ccccc32)c1`, the “% Inhibition” value was -1% and the Z score was 0.23.

These data come from ChEMBL document CHEMBL4888484, “Replenishing the malaria drug discovery pipeline: Screening and hit evaluation of the MMV Hit Generation Library 1 (HGL1) against asexual blood stage Plasmodium falciparum ,using a nano luciferase reporter read-out” (2022).
